# Experimental data from PubChem BioAssay AID686979 (National Center for Advancing Translational Sciences (NCATS), 2013).
# Several values for one entry are separate records, joined by “and”; a condition that tells them apart may be missing. Identical values can stand only once. About 50,000 (12%) of roughly 420,000 compounds were called active. The inconclusive results got no clear call from the source; some entries with a clear call stand among them for comparison. The call rests on the fitted dose curve; in most records, active means well fitted inhibition curve with a large enough effect; inconclusive means small, poorly fitted or top-dose-only effect; inactive means flat fitted curve, though single readings scatter. Potencies beside an inconclusive call are fits to weak or partial responses and may not hold up.
# Assay: qHTS for Inhibitors of human tyrosyl-DNA phosphodiesterase 1 (TDP1): qHTS in cells in presence of CPT; further: nearly all actives have a fitted effect of over 55% in size
# Conditions: chicken DT40 Tdp1-/-;hTDP1 cells + 20 nM CPT, ATP luminescence, 48 h; activity change, negative = growth inhibition: at 46.2 µM (top of the series) unless noted
# How it was run: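 Cell growth measured by CellTiter-Glo luminescence after a minimum 48 h, 37 C compound exposure with 20 nM CPT in Tdp1-knockout DT40 cells stably expressing hTDP1, seeded 400/well; qHTS titration format.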
# On the % scale 0 is the no-effect control and ±100 the full control effect; potency means the concentration at half of the fitted maximal effect; tags describe the fitted curve by direction and shape.
SMILES,Potency,"activity change, negative = growth inhibition"
Cc1noc(C)c1-c1cc(N(C)C)ncn1,"inconclusive: 29.1 µM [inhibitor, single point]",–
CCOc1cccc2sc(NC(=O)c3ccc(S(=O)(=O)N4CCCc5ccccc54)cc3)nc12,inactive,–
O=C(N/N=C\c1ccc(Cl)s1)C1COc2ccccc2O1 (stereo not given),"inconclusive: 20.6 µM [inhibitor, single point]",–
Cc1ccc(CCNC(=O)c2ccc3c(=O)n(-c4ccc(C)cc4)c(=O)[nH]c3c2)cc1,inactive,–
O=C(COc1ccc(S(=O)(=O)N2CCCC2)cc1)Nc1ccc2c(c1)OCCO2,inactive,–
Cc1cc(/C=C(\C#N)C(=O)NCC2CCCO2)c(C)n1-c1ccc(Cl)cc1 (stereo not given),active: 10.3 µM,–
O=C(O)c1ccc(NC(=O)c2ccccc2NC(=O)c2ccccc2Br)cc1,inactive,–
COc1cc(CNC(C)(C)CO)cc(Br)c1OCc1ccc(Cl)cc1Cl,"inconclusive: 20.6 µM [inhibitor, single point]",–
Cc1ccccc1CNC(=O)C(=O)NCCC1CCCCN1S(=O)(=O)c1cccs1 (stereo not given),active: 18.4 µM,–
Cc1ccccc1N1CCN(CCc2nnc3n2CCCC3)CC1,"inconclusive: 2.99 µM [inhibitor, partial curve, poor fit]",–
COc1cccc(-c2sc3ccccc3c2-c2ccc(OCCN(C)C)cc2)c1,"inconclusive: 23.1 µM [inhibitor, single point]",–
O=C(CNS(=O)(=O)c1cccs1)N1CCN(c2ccccc2Cl)CC1,"inconclusive: 29.1 µM [inhibitor, single point]",–
Cc1ccc(CCSc2ccc(C(C)C)cc2)cn1,"inconclusive: 29.1 µM [inhibitor, single point]",–
O=C(OC1CCCCC1)c1ccc(NC(=O)C2CCCCC2)cc1,"inconclusive: 23.1 µM [inhibitor, single point]",–
O=[N+]([O-])c1ccc(-c2ccc(/C=N/Nc3nc(NCc4ccccc4)nc(N4CCOCC4)n3)o2)cc1,active: 9.2 µM,–
CCn1c(COc2ccccc2)nnc1SCC(=O)Nc1cc(OC)ccc1OC,–,inconclusive: -33.6% [inhibitor]
CC1CCCN(C(=O)c2cc3c(=O)n4ccccc4nc3s2)C1 (stereo not given),"inconclusive: 23.1 µM [inhibitor, single point]",–
O=C(CS(=O)(=O)Cc1ccccc1)Nc1ccccc1Cl,inactive,–
CCN(CC)CCNC(=O)c1ccc(N2CCCCC2)c(NS(=O)(=O)c2ccc(C)cc2)c1,active: 25.9 µM,–
Cc1cc(C)c2c(CN3CCCCCCC3)cc(=O)oc2c1,"inconclusive: 20.6 µM [inhibitor, single point]",–
Cc1cccnc1NC(=O)c1cccc(S(=O)(=O)N2CCCc3ccccc32)c1,"inconclusive: 14.6 µM [inhibitor, partial curve]",–
COc1cc2c(cc1OC)C(C)N(C(=S)NC(=O)c1ccccc1)CC2 (stereo not given),"inconclusive: 20.6 µM [inhibitor, single point]",–
O=C(Nc1ccc([N+](=O)[O-])cc1)c1nc[nH]c1C(=O)NC1CCCCC1,"inconclusive: 29.1 µM [inhibitor, single point]",–

SMILES,Potency,"activity change, negative = growth inhibition"
Cc1ccc(C(=O)Nc2ccc3nc(SCC(=O)N4CCc5ccccc54)sc3c2)cc1,"inconclusive: 9.2 µM [inhibitor, partial curve]",–
Cc1ccc2c(CNCc3cccc(Cl)c3)c(C(=O)O)n(Cc3ccc(F)cc3Cl)c2c1,active: 3.26 µM,–
O=C(Cn1cc(SCc2cccc(F)c2)c2ccccc21)N1CCCC1,"inconclusive: 29.1 µM [inhibitor, single point]",–
Cc1ccc(C(=O)Nc2nc(C(C)(C)C)cs2)s1,"inconclusive: 29.1 µM [inhibitor, single point]",–
CCC(=O)c1ccc2c(c1)N(CCCN(C)C)c1ccccc1S2,"inconclusive: 29.9 µM [inhibitor, single point] and inconclusive: 18.4 µM [inhibitor, single point]",–
COc1ccc(NC(=O)c2cc(C3CCCCN3C(=O)c3cc(OC)c(C)c(OC)c3)on2)c(C)c1 (stereo not given),"inconclusive: 29.1 µM [inhibitor, single point]",–
Cc1ccc(C(=O)N/N=C\C=C\c2ccccc2[N+](=O)[O-])cn1,"inconclusive: 29.1 µM [inhibitor, single point]",–
O=C(NC1CCCCCC1)c1ccc(Cl)c(S(=O)(=O)N2CCOCC2)c1,"inconclusive: 29.1 µM [inhibitor, single point]",–
Clc1ccc(-n2nnnc2-c2cnc(-c3ccccn3)nc2-c2cccs2)cc1,active: 6.51 µM,–
COc1ccc2c(c1)c(C(=O)CN1CCN(c3ccccc3)CC1)c(C)n2C,"inconclusive: 25.9 µM [inhibitor, single point]",–
COc1ccc(CN2CCN(C(=O)c3cccc(OC)c3OC)CC2)cc1OC,inactive,–
CC(=O)Nc1ccc(NC2=CC(=O)c3ccccc3C2=O)cc1,inactive,–
COC(=O)c1c(C(=O)OC)c2oc3ccccc3n2c1Cl,"inconclusive: 25.9 µM [inhibitor, single point]",–
O=C(c1ccc(S(=O)(=O)N2CCCCC2)cc1)c1nnc(-c2ccc(Cl)cc2)o1,"inconclusive: 25.9 µM [inhibitor, single point]",–
CSc1ccc(CNC(=O)CCn2ccc3cc(S(=O)(=O)N4CCC(C)CC4)ccc32)cc1,active: 20.6 µM,–
O=C(NC(=S)NCc1ccc(Cl)cc1)c1ccco1,"inconclusive: 29.1 µM [inhibitor, single point]",–
CCN(CC)C(=O)C1=C(C)N(Cc2ccccc2)C(=O)C(CC(=O)NCCCCc2ccccc2)C1 (stereo not given),active: 23.1 µM,–
COc1cccc(-n2nnc3c(sc4nc(C)cc(C)c43)c2=O)c1,inactive,–
c1ccc(-n2nnnc2NC2CCCCC2)cc1,inactive,–
Cc1c(Cl)cccc1NC(=O)N1CCC(CN2CCCC2)CC1,inactive,–
OCCN1CCN(c2ncnc3c2ncn3[C@H]2CN(Cc3cccc(C(F)(F)F)c3)C[C@@H](CO)O2)CC1,"inconclusive: 7.31 µM [inhibitor, partial curve]",–
Cc1ccc(NC(=O)CNCC(c2ccccc2)N(C)C)cc1F (stereo not given),inactive,–
